We go through 31 molecules from article PMC9911399, “Two distinct binding modes provide the RNA-binding protein RbFox with extraordinary sequence specificity”.

Numbering of substitutions follows the chain as printed; changes in the protein carry UniProt numbers. The list shows a part of the results.

To fix the notation:
B1: CAACUAA (DNA:RNA)
RNA: GGGAGACCGGAAUUCAGAUUGUCCCAACUAAUUAAAUCCCGUCGUAGCCACCA
DNA 1: CAATCTGAATTCCGGTCTCCC
DNA 2: TGGTGGCTACGACGGGATT
B2: AGACGCA (DNA:RNA)
RNA: B1 RNA with C25A, A26G, U29G, A30C
DNA 1: CAATCTGAATTCCGGTCTCCC
DNA 2: TGGTGGCTACGACGGGATT
B3: GAUGCUA (DNA:RNA)
RNA: B1 RNA with C25G, A27U, C28G, U29C, A30U
DNA 1: CAATCTGAATTCCGGTCTCCC
DNA 2: TGGTGGCTACGACGGGATT
B4: GCUAAUA (DNA:RNA)
RNA: B1 RNA with C25G, A26C, A27U, C28A, U29A, A30U
DNA 1: CAATCTGAATTCCGGTCTCCC
DNA 2: TGGTGGCTACGACGGGATT
B5: AAUUAUA (DNA:RNA)
RNA: B1 RNA with C25A, A27U, C28U, U29A, A30U
DNA 1: CAATCTGAATTCCGGTCTCCC
DNA 2: TGGTGGCTACGACGGGATT
B6: AGGGGUC (DNA:RNA)
RNA: GGGAGACCGGAAUUCAGAUUGUCCAGGGGUCUUAAAUCCCGUCGUAGCCACCA
DNA 1: CAATCTGAATTCCGGTCTCCC
DNA 2: TGGTGGCTACGACGGGATT
B7: AAACCCG (DNA:RNA)
RNA: B1 RNA with C25A, U29C, A30C, A31G
DNA 1: CAATCTGAATTCCGGTCTCCC
DNA 2: TGGTGGCTACGACGGGATT
B8: CACAUGG (DNA:RNA)
RNA: B1 RNA with A27C, C28A, A30G, A31G
DNA 1: CAATCTGAATTCCGGTCTCCC
DNA 2: TGGTGGCTACGACGGGATT
B9: CAUGGAA (DNA:RNA)
RNA: B1 RNA with A27U, C28G, U29G
DNA 1: CAATCTGAATTCCGGTCTCCC
DNA 2: TGGTGGCTACGACGGGATT
B10: GGGGUAU (DNA:RNA)
RNA: B6 RNA with A25G, G29U, U30A, C31U
DNA 1: CAATCTGAATTCCGGTCTCCC
DNA 2: TGGTGGCTACGACGGGATT
B11: CAUUUUC (DNA:RNA)
RNA: B1 RNA with A27U, C28U, A30U, A31C
DNA 1: CAATCTGAATTCCGGTCTCCC
DNA 2: TGGTGGCTACGACGGGATT
B12: GUUCACG (DNA:RNA)
RNA: B1 RNA with C25G, A26U, A27U, U29A, A30C, A31G
DNA 1: CAATCTGAATTCCGGTCTCCC
DNA 2: TGGTGGCTACGACGGGATT
B13: ACGGUGC (DNA:RNA)
RNA: B6 RNA with G26C, G29U, U30G
DNA 1: CAATCTGAATTCCGGTCTCCC
DNA 2: TGGTGGCTACGACGGGATT
B14: GCGGCGU (DNA:RNA)
RNA: B6 RNA with A25G, G26C, G29C, U30G, C31U
DNA 1: CAATCTGAATTCCGGTCTCCC
DNA 2: TGGTGGCTACGACGGGATT
B15: CCGGGGA (DNA:RNA)
RNA: B6 RNA with A25C, G26C, U30G, C31A
DNA 1: CAATCTGAATTCCGGTCTCCC
DNA 2: TGGTGGCTACGACGGGATT
B16: GAUGUUU (DNA:RNA)
RNA: B6 RNA with A25G, G26A, G27U, G29U, C31U
DNA 1: CAATCTGAATTCCGGTCTCCC
DNA 2: TGGTGGCTACGACGGGATT
B17: CUUCCAU (DNA:RNA)
RNA: B1 RNA with A26U, A27U, U29C, A31U
DNA 1: CAATCTGAATTCCGGTCTCCC
DNA 2: TGGTGGCTACGACGGGATT
B18: GCGACUG (DNA:RNA)
RNA: B6 RNA with A25G, G26C, G28A, G29C, C31G
DNA 1: CAATCTGAATTCCGGTCTCCC
DNA 2: TGGTGGCTACGACGGGATT
B19: GGCGAAC (DNA:RNA)
RNA: B6 RNA with A25G, G27C, G29A, U30A
DNA 1: CAATCTGAATTCCGGTCTCCC
DNA 2: TGGTGGCTACGACGGGATT
B20: UUGACAA (DNA:RNA)
RNA: B1 RNA with C25U, A26U, A27G, C28A, U29C
DNA 1: CAATCTGAATTCCGGTCTCCC
DNA 2: TGGTGGCTACGACGGGATT
B21: CAGACCU (DNA:RNA)
RNA: B1 RNA with A27G, C28A, U29C, A30C, A31U
DNA 1: CAATCTGAATTCCGGTCTCCC
DNA 2: TGGTGGCTACGACGGGATT
B22: AGUAAGU (DNA:RNA)
RNA: B6 RNA with G27U, G28A, G29A, U30G, C31U
DNA 1: CAATCTGAATTCCGGTCTCCC
DNA 2: TGGTGGCTACGACGGGATT
B23: ACACCGC (DNA:RNA)
RNA: B6 RNA with G26C, G27A, G28C, G29C, U30G
DNA 1: CAATCTGAATTCCGGTCTCCC
DNA 2: TGGTGGCTACGACGGGATT
B24: CAUGGUU (DNA:RNA)
RNA: B6 RNA with A25C, G26A, G27U, C31U
DNA 1: CAATCTGAATTCCGGTCTCCC
DNA 2: TGGTGGCTACGACGGGATT
B25: GCCAUCG (DNA:RNA)
RNA: B1 RNA with C25G, A26C, A27C, C28A, A30C, A31G
DNA 1: CAATCTGAATTCCGGTCTCCC
DNA 2: TGGTGGCTACGACGGGATT
B26: GAGACAC (DNA:RNA)
RNA: B6 RNA with A25G, G26A, G28A, G29C, U30A
DNA 1: CAATCTGAATTCCGGTCTCCC
DNA 2: TGGTGGCTACGACGGGATT
B27: AAUUGAA (DNA:RNA)
RNA: B1 RNA with C25A, A27U, C28U, U29G
DNA 1: CAATCTGAATTCCGGTCTCCC
DNA 2: TGGTGGCTACGACGGGATT
B28: GGUAAGU (DNA:RNA)
RNA: B6 RNA with A25G, G27U, G28A, G29A, U30G, C31U
DNA 1: CAATCTGAATTCCGGTCTCCC
DNA 2: TGGTGGCTACGACGGGATT
B29: GAUGACC (DNA:RNA)
RNA: B6 RNA with A25G, G26A, G27U, G29A, U30C
DNA 1: CAATCTGAATTCCGGTCTCCC
DNA 2: TGGTGGCTACGACGGGATT
B30: GAACUAC (DNA:RNA)
RNA: B1 RNA with C25G, A31C
DNA 1: CAATCTGAATTCCGGTCTCCC
DNA 2: TGGTGGCTACGACGGGATT
B31: UUUAAAA (DNA:RNA)
RNA: B1 RNA with C25U, A26U, A27U, C28A, U29A
DNA 1: CAATCTGAATTCCGGTCTCCC
DNA 2: TGGTGGCTACGACGGGATT

This test addresses T1, RBFOX1 RRM RbFoxmut (Fox-RRM*) (Homo sapiens, UniProt Q9NWB1 109-208, R118D;E147R;N151S;E152T).
T1 sequence: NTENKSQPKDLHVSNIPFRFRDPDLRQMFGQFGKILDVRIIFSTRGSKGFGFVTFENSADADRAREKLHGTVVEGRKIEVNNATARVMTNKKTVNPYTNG
The experiment in a line: EMSA; HiTS-Eq, 1 nM pool, 10 min; buffer printed only for the single-RNA assays: 10 mM Tris pH 7.5, 150 mM NaCl, 3.4 mM EDTA, 0.001% NP-40, 30 C. The settings on record: tags: His6 N-terminal (pET28a); label: 5' 32P. Summed up: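 A pool of RNA with 7 randomized nucleotides, 5′-radiolabelled and with DNA-annealed flanks, was equilibrated at 1 nM for 10 min in 50 µL with purified RbFox RRM, wild type or mutant, across increasing protein concentrations. Free RNA was separated by 8% native PAGE, excised, reverse-transcribed, barcoded by PCR and sequenced. Relative association constants were obtained from read-count changes of each RNA species versus the control reaction and normalised to the cognate motif.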
On the technique in general: In EMSA bound probe runs differently from free probe, usually more slowly.
As for B1, the binding signal was 0.117 KA relative to UGCAUGU.

For B2, the binding signal is 0.108 KA relative to UGCAUGU.

In the case of B3, the binding signal was 0.111 KA relative to UGCAUGU.

For B4, the binding signal is 0.102 KA relative to UGCAUGU.

Regarding B5, the binding signal was 0.108 KA relative to UGCAUGU.

B6: the binding signal was 0.163 KA relative to UGCAUGU.

For the molecule B7, the binding signal is 0.101 KA relative to UGCAUGU.

Regarding B8, the binding signal was 0.0938 KA relative to UGCAUGU.

Turning to B9, the binding signal was 0.103 KA relative to UGCAUGU.

As to B10, the binding signal is 0.122 KA relative to UGCAUGU.

B11: the binding signal is 0.0854 KA relative to UGCAUGU.

B12: the binding signal is 0.0981 KA relative to UGCAUGU.

On to B13, for which the binding signal was 0.128 KA relative to UGCAUGU.

B14: the binding signal was 0.141 KA relative to UGCAUGU.

B15: the binding signal was 0.0915 KA relative to UGCAUGU.

With B16, the binding signal is 0.125 KA relative to UGCAUGU.

As to B17, the binding signal was 0.0804 KA relative to UGCAUGU.

Take B18: the binding signal was 0.177 KA relative to UGCAUGU.

With B19, the binding signal is 0.0792 KA relative to UGCAUGU.

Regarding B20, the binding signal is 0.0346 KA relative to UGCAUGU.

Consider B21, for which the binding signal is 0.0546 KA relative to UGCAUGU.

As to B22, the binding signal was 0.125 KA relative to UGCAUGU.

Take B23: the binding signal was 0.122 KA relative to UGCAUGU.

With B24, the binding signal was 0.131 KA relative to UGCAUGU.

For B25, the binding signal is 0.0927 KA relative to UGCAUGU.

In the case of B26, the binding signal is 0.0441 KA relative to UGCAUGU.

Regarding B27, the binding signal was 0.1 KA relative to UGCAUGU.

With B28, the binding signal was 0.0835 KA relative to UGCAUGU.

With B29, the binding signal was 0.0621 KA relative to UGCAUGU.

Turning to B30, the binding signal is 0.0677 KA relative to UGCAUGU.

Turning to B31, the binding signal was 0.0929 KA relative to UGCAUGU.
